# Reference: the supplement of paper PMC8728848
# Some of the results follow.
# B1: Blon2468mut (Bifidobacterium longum) (protein)
# chain: MTFIKQMMPRYVASMTAGIVAAAMAATCAFAPVANADAVSPTQETIQSTGRHFMVYYRAWRDVTMKGVNTDLPDDNWISMYDIPYGVDVVNIFSYVPSGQEEQAQPFYDKLKSDYAPYLHSRGIKLVRGIDYTGVAVNGFRTFMKEQNKTESEATEADYDAYAKQVIDKYMISVGLDGLDIDMQAHPNDADVKISDNVIRALSKHIGPKSAKPDTTMFLYDTNGSYLNPFKNVAECFDYVAYQQYGSSSDRTARAAADYQPYIGNEFVPGLTFPEEGDMNNRWYDATEPYEESHFYQVASYVREHNLGGMFVYALDRDGRNYDEDLRRIVPSNLLWTKTAIAESEGMALDTAKTAANHYLDRMSLRQVIDDNAASADKARDMVGKAANLYETNKAVLGGDYGEGFSNTYDPTLEAGLLGIDISVLQQQIDKSSEIIGADTAESDAKTALRMARDAAIDGLTGKIYTADQVSAWSQALKAALDATVPVPTPDSTDQNGNRDKVTNHKVQGQPKQLSATGISTDIIVAVGVTLAIAGVALSLSRKLS
# Assays:
# Assay in all cases: glycan array binding signal (z-score within array); higher = stronger binding
# Settings in all cases: glycan notation: IUPAC condensed, linker removed
# [1] = target: Fuc(a1-2)[Gal(a1-3)]Gal(b1-4)GlcNAc(b1-2)Man(a1-3)[Fuc(a1-2)[Gal(a1-3)]Gal(b1-4)GlcNAc(b1-2)Man(a1-6)]Man(b1-4)GlcNAc(b1-4)[Fuc(a1-6)]GlcNAc
# Summary of the method: (§1)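 Glycan array data were curated from 3228 arrays in the Consortium for Functional Glycomics database and kept only where the protein sequence was available. Glycan names were converted to IUPAC-condensed notation, and columns mapping to the same glycan were averaged. The binding signal is a within-array Z-score, averaged across arrays of the same protein sequence at different concentrations or buffers and across linkers. Negative Z-scores can be read as non-binding.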
# [2] = target: Fuc(a1-2)[Gal(a1-3)]Gal(b1-4)GlcNAc(b1-3)GalNAc
# Summary of the method: as §1
# [3] = target: Fuc(a1-2)[Gal(a1-3)]Gal(b1-4)GlcNAc(b1-6)GalNAc
# Summary of the method: as §1
# [4] = target: Fuc(a1-2)[Gal(a1-3)]Gal(b1-4)[Fuc(a1-3)]Glc
# Summary of the method: as §1
# [5] = target: Fuc(a1-2)[Gal(a1-3)]Gal(b1-4)[Fuc(a1-3)]GlcNAc
# Summary of the method: as §1
# [6] = target: Fuc(a1-2)[Gal(a1-3)]Gal(b1-4)[Fuc(a1-3)]GlcNAc(b1-3)GalNAc
# Summary of the method: as §1
# [7] = target: Fuc(a1-2)[Gal(a1-4)]Gal(b1-4)GlcNAc
# Summary of the method: as §1
# [8] = target: Fuc(a1-2)[GalNAc(a1-3)]Gal
# Summary of the method: as §1
# [9] = target: Fuc(a1-2)[GalNAc(a1-3)]Gal(b1-3)GalNAc(a1-3)[Fuc(a1-2)]Gal(b1-4)GlcNAc
# Summary of the method: as §1
# [10] = target: Fuc(a1-2)[GalNAc(a1-3)]Gal(b1-3)GalNAc(b1-3)Gal(a1-4)Gal(b1-4)Glc
# Summary of the method: as §1
# [11] = target: Fuc(a1-2)[GalNAc(a1-3)]Gal(b1-3)GlcNAc
# Summary of the method: as §1
# [12] = target: Fuc(a1-2)[GalNAc(a1-3)]Gal(b1-3)GlcNAc(b1-2)Man(a1-3)[Fuc(a1-2)[GalNAc(a1-3)]Gal(b1-3)GlcNAc(b1-2)Man(a1-6)]Man(b1-4)GlcNAc(b1-4)GlcNAc
# Summary of the method: as §1
# [13] = target: Fuc(a1-2)[GalNAc(a1-3)]Gal(b1-3)GlcNAc(b1-2)Man(a1-3)[Fuc(a1-2)[GalNAc(a1-3)]Gal(b1-3)GlcNAc(b1-2)Man(a1-6)]Man(b1-4)GlcNAc(b1-4)[Fuc(a1-6)]GlcNAc
# Summary of the method: as §1
# [14] = target: Fuc(a1-2)[GalNAc(a1-3)]Gal(b1-3)GlcNAc(b1-3)GalNAc
# Summary of the method: as §1
# [15] = target: Fuc(a1-2)[GalNAc(a1-3)]Gal(b1-3)GlcNAc(b1-6)GalNAc
# Summary of the method: as §1
# [16] = target: Fuc(a1-2)[GalNAc(a1-3)]Gal(b1-4)Glc
# Summary of the method: as §1
# [17] = target: Fuc(a1-2)[GalNAc(a1-3)]Gal(b1-4)GlcNAc
# Summary of the method: as §1
# [18] = target: Fuc(a1-2)[GalNAc(a1-3)]Gal(b1-4)GlcNAc(b1-2)Man
# Summary of the method: as §1
# [19] = target: Fuc(a1-2)[GalNAc(a1-3)]Gal(b1-4)GlcNAc(b1-2)Man(a1-3)[Fuc(a1-2)[GalNAc(a1-3)]Gal(b1-4)GlcNAc(b1-2)Man(a1-6)]Man(b1-4)GlcNAc(b1-4)GlcNAc
# Summary of the method: as §1
# [20] = target: Fuc(a1-2)[GalNAc(a1-3)]Gal(b1-4)GlcNAc(b1-2)Man(a1-3)[Fuc(a1-2)[GalNAc(a1-3)]Gal(b1-4)GlcNAc(b1-2)Man(a1-6)]Man(b1-4)GlcNAc(b1-4)[Fuc(a1-6)]GlcNAc
# Summary of the method: as §1
# [21] = target: Fuc(a1-2)[GalNAc(a1-3)]Gal(b1-4)GlcNAc(b1-3)Gal(b1-4)GlcNAc
# Summary of the method: as §1
# [22] = target: Fuc(a1-2)[GalNAc(a1-3)]Gal(b1-4)GlcNAc(b1-3)Gal(b1-4)GlcNAc(b1-3)Gal(b1-4)GlcNAc
# Summary of the method: as §1
# [23] = target: Fuc(a1-2)[GalNAc(a1-3)]Gal(b1-4)GlcNAc(b1-3)GalNAc
# Summary of the method: as §1
# [24] = target: Fuc(a1-2)[GalNAc(a1-3)]Gal(b1-4)GlcNAc(b1-3)[Fuc(a1-2)[GalNAc(a1-3)]Gal(b1-4)GlcNAc(b1-6)]GalNAc
# Summary of the method: as §1
# [25] = target: Fuc(a1-2)[GalNAc(a1-3)]Gal(b1-4)GlcNAc(b1-6)GalNAc
# Summary of the method: as §1
# [26] = target: Fuc(a1-2)[GalNAc(a1-3)]Gal(b1-4)[Fuc(a1-3)]GlcNAc
# Summary of the method: as §1
# [27] = target: Fuc(a1-2)[GalNAc(a1-3)]Gal(b1-4)[Fuc(a1-3)]GlcNAc(b1-3)GalNAc
# Summary of the method: as §1
# [28] = target: Fuc(a1-2)[GalNAc(a1-4)]Gal(b1-4)GlcNAc
# Summary of the method: as §1
# [29] = target: Fuc(a1-2)[GalNAc(b1-3)]Gal
# Summary of the method: as §1
# Fuc(a1-3)GlcNAc = target: Fuc(a1-3)GlcNAc
# Summary of the method: as §1
binder,measurement,setting,value
B1,glycan array binding signal (z-score),[1],-0.065
same,glycan array binding signal (z-score),[2],-0.072
same,glycan array binding signal (z-score),[3],-0.011
same,glycan array binding signal (z-score),[4],-0.082
same,glycan array binding signal (z-score),[5],-0.049
same,glycan array binding signal (z-score),[6],-0.064
same,glycan array binding signal (z-score),[7],-0.06
same,glycan array binding signal (z-score),[8],-0.054
same,glycan array binding signal (z-score),[9],-0.077
same,glycan array binding signal (z-score),[10],-0.069
same,glycan array binding signal (z-score),[11],-0.077
same,glycan array binding signal (z-score),[12],-0.076
same,glycan array binding signal (z-score),[13],-0.036
same,glycan array binding signal (z-score),[14],-0.047
same,glycan array binding signal (z-score),[15],-0.068
same,glycan array binding signal (z-score),[16],-0.027
same,glycan array binding signal (z-score),[17],-0.07
same,glycan array binding signal (z-score),[18],-0.064
same,glycan array binding signal (z-score),[19],-0.055
same,glycan array binding signal (z-score),[20],-0.089
same,glycan array binding signal (z-score),[21],-0.089
same,glycan array binding signal (z-score),[22],-0.095
same,glycan array binding signal (z-score),[23],-0.06
same,glycan array binding signal (z-score),[24],-0.072
same,glycan array binding signal (z-score),[25],-0.063
same,glycan array binding signal (z-score),[26],-0.04
same,glycan array binding signal (z-score),[27],-0.073
same,glycan array binding signal (z-score),[28],-0.021
same,glycan array binding signal (z-score),[29],-0.061
same,glycan array binding signal (z-score),Fuc(a1-3)GlcNAc,-0.047
